The source gives no read counts; variants with many changes may rest on few reads.
B1: LINE1-mini (parent)
chain: GGCAGAGCUCAACACAGCGUGGCAAAGUGGCUGUGGCUAGACUGCC

Variants of: B1
Test: self-cleavage, relative activity (ratio to wild type); higher = more cleavage; in vitro, sequencing; the parent is a self-cleaving ribozyme

Variant | self-cleavage
C3A A25C G40U | 0.12
C3A A12G C13U C46U | 0.08
C3A A25G C42A | 0.09
C3A C15A G21C G22U | 0.07
C3A A16C C18U G27U A41G | 0.06
C3A A12U A14G C23U G44U | 1.13
C3A A24C G33C | 0.11
C3A C13U C15G | 0.17
C3A C10A G29U G30A | 0.06
C3A G5U C13G A25C U32A G40U | 0.04
C3A C13U C18U U20A | 0.34
C3A A25U A39U | 0.09
C3A A25C G30U G33A G40U | 0.16
C3A A6C G7U C13G G36U C42A | 0.09
C3A C23G A41U | 0.1
C3A A16U U43A | 0.13
C3A A11U C13U | 0.06
C3A C10U A16U G35A | 0.05
C3A C13A G29U G36U U38G A39G C46U | 0.78
C3A C15A C23G A39C | 0.03
C3A C15U A41U C45U | 0.26
C3A C8A U9G G21U C46A | 0.08
C3A C10G U20C G21U A26G A39C | 0.01
C3A A12C C31G | 0.02

Variant | self-cleavage
C3A A6C G36C A39C A41C | 0.17
C3A C8G A12G C13A G22C | 0.83
C3A C13U C23A G35U | 1.85
C3A C8G C13A C15G C23A C31U | 0.1
C3A C13U G36U A41U | 0.23
C3A A6G G33U C45A | 0.04
C3A A39G G40U U43G | 1.44
C3A A26G U32G U34G | 0.13
C3A A25C G27U U38A | 0.31
C3A C10U A25U U28C G30U G36C G40U | 0.04
C3A G5A G22U | 0.88
C3A A6C G7C C23G | 0.19
C3A A14U U28G A39U C42G | 0.05
C3A A11U G19A C23A U28G G33A | 0.02
C3A A12G G29A | 0.08
C3A A16U U34G G35C | 0.15
C3A C15U G17C | 0.02
C3A A6G U38G | 0.21
C3A C13U U20G A24C A25C G27C | 0.03
C3A A26G G33C | 0.13
C3A C18A A41C C46A | 0.1
C3A A12G G21U | 0.51
C3A G5U C13G | 0.15
C3A G5A A6U U9C A14U A24U C37A | 0.05

Variant | self-cleavage
C3A C10U C13U U20A U34A C37A | 0.12
C3A C8A U28C | 0.55
C3A A11G G22A C42A | 0.02
C3A A14G C15A C18U G30U | 0.03
C3A A11G A16G G17A G29U G35C G36C | 0
C3A G5A C8A C37G | 0.99
C3A A6C C37G U38C | 0.27
C3A C13U C45G | 0.79
C3A C8U C23G C42U | 1.72
C3A G5C G17C G40C | 0.11
C3A A11G A24C C37U U38G | 0.01
C3A A16U C37A | 0.12
C3A C8G U9A G35U G36U | 1.04
C3A G5C A6U | 0.9
C3A C10U A25G A26G G33C | 0.03
C3A A11G A12G A26C G30U | 0.01
C3A C18A A25G C31U U38C | 0.06
C3A C13U C31A | 0.25
C3A A11G C18A | 0.08
C3A C18G C45A | 0.02
C3A A12U C13A G36U | 1.07
C3A A25G A26G | 0.14
C3A A25G A26C | 0.3
C3A G5A A6C G17A A24U G27U | 0.33

Variant | self-cleavage
C3A C8A G17A | 0.41
C3A G5A A16C C18U A24C C46G | 0.17
C3A A6C G29U | 0.23
C3A C18U G19A G22A A24C U28A | 0.45
C3A A14U G21C | 1.32
C3A C10G G17U G22C C31A C42U C46U | 0.01
C3A A16C A26G C46A | 0.06
C3A C37A A39C | 0.29
C3A C15U G30A | 0.32
C3A C8A U9C A24U | 0.19
C3A A14G C37G A39G | 0.7
C3A A25C C31G | 0.14
C3A A6C C10A U38A | 0.04
C3A C8A A16U G17A G40C | 0.05
C3A C15U G27U | 0.46
C3A C13A G19C G22C G30C G40U | 0.1
C3A C18G G21C G36A | 0.31
C3A A6C U28C U32A C45U | 0.06
C3A A11C U28G | 0.05
C3A C18G U28A C42U | 0.21
C3A A6C C18A G19C G35A G36C | 0.1
C3A C13A G30C C46A | 0.44
C3A C31A U34A C46G | 0.09
C3A C13A C31A | 0.08

Variant | self-cleavage
C3A C8G G19C G27C | 0.15
C3A A11C G19C A41U | 0.02
C3A C10A G21U C42U C45U | 0.04
C3A A11G G19A G21U C23U | 0.03
C3A A6G C18U C37G | 0.03
C3A A14G G40C C45U | 0.11
C3A C13A U43C | 0.97
C3A C23A C45G | 0.09
C3A C13G G36C G44A | 0.31
C3A A6G C23U G27A G35C | 0.12
C3A C10G C15U A39U | 0.02
C3A A14U U38C G44C | 0.2
C3A C15A A41C | 0.13
C3A C8U C10G C18A U20A G35A | 0.02
C3A A26C C31G C46U | 0
C3A C13A G35U | 1.26
C3A A12C C15U G22U U38C | 0.04
C3A A6G C10U G27A | 0.26
C3A A26C G33A C37A | 0.3
C3A C10A A24G | 0.02
C3A A14C C15A | 0.12
C3A C8U A12C G30U U43A | 0.09
C3A A24C G44U | 1.92
C3A C13A A41C | 0.39

Variant | self-cleavage
C3A A16U U28A | 0.03
C3A A6G G29A | 0.25
C3A G5U A6U U34A A39U | 0.09
C3A C10U A24G G40U | 0.02
C3A A26C C31U | 0.04
C3A A25G U34C | 0.16
C3A G5U C8A C10G U28C C45G | 0.05
C3A C10U G27A | 0.05
C3A C10A A14C G21C | 0
C3A C8U G19U C31G | 0.15
C3A C13A A26U | 1.94
C3A C8A A26G | 0.21
C3A C13A A25U U34C | 0.24
C3A A16C U28A | 0.56
C3A A16C U28G | 0.19
C3A A11U A12G | 0.03
C3A G5C G7C G17A C18A A24C C37A | 0.03
C3A A14G C15A | 0.25
C3A C15U C31U | 0.28
C3A C15U C31G | 0.22
C3A A6U G22U C31U G35U | 0.08
C3A C10U A25G G40U A41G C42G | 0.04
C3A A16U C45U | 0.07
C3A C8G C13G G36U | 0.03

Variant | self-cleavage
C3A C23G G44C C46A | 0.21
C3A G5A C8A A14G A26C G33U U34G | 0.87
C3A A6C G7C G21C A25C | 0.15
C3A C8G C15U A26G G33A | 0.26
C3A A6G G27A G35A | 0.12
C3A C23A U28G G35A | 0.67
C3A A39G U43C | 0.09
C3A A26U G29C U32C | 0.16
C3A C13G G22U G29A | 0.82
C3A G5C A11U G17U | 0.03
C3A A6U A12C U20A | 0.03
C3A A14U G35U G40A A41C C42A | 0.02
C3A A24U C31A U34A C46A | 0.01
C3A A26C G30U G35C G36A C37U U38A | 0.21
C3A C13A G21A G27U G29U | 1.65
C3A C13A C42A | 0.29
C3A G5A C23A A41C | 1.13
C3A G5C C45U | 0.06
C3A A6G G7C C8A C10A A24G | 0.06
C3A A6G U34A U38A A39C | 0.04
C3A A12C A39U G40A | 0.05
C3A C8A C13G | 0.4
C3A C13A A14G | 0.04

Source: the RNAGym collection of RNA variant scans (doi:10.7554/elife.90254)
